# According to PubChem BioAssay AID602310 (National Center for Advancing Translational Sciences (NCATS), 2012):
# About 310 (0.076%) of roughly 410,000 compounds were called active. Inconclusive results (about 2%) are left out. Calls follow the shape of the dose curve; as a rule, active = well fitted curve in the direction sought with a large enough effect; inconclusive = small, poorly fitted or top-dose-only effect; inactive = flat fitted curve, though single readings scatter. This is a selection; strong and weak results do not stand in their true shares. The source holds several records for some structures; these can differ, active in one and inactive in another.
# Target: DNA dC->dU-editing enzyme APOBEC-3G (Homo sapiens) (UniProt Q9HC16)
# Chain of UniProt Q9HC16 (Q9HC16 whole entry, looked up): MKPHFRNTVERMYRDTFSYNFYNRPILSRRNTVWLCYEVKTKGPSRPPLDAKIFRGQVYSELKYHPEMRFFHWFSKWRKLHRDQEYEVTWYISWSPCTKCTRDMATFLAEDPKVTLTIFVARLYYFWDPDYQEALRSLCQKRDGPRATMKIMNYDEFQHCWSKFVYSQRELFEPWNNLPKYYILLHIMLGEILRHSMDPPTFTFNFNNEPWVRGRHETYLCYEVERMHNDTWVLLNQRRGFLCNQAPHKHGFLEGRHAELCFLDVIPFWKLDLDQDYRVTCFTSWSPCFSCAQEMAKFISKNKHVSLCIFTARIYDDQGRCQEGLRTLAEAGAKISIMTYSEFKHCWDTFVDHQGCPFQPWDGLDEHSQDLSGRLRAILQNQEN
# Assay: qHTS for Inhibitors of Vif-A3G Interactions: qHTS; also: nearly all actives have a fitted effect of over 60% in size;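 as to activity, negative = active: hits raise eYFP signal because A3G escapes Vif-driven loss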
# Settings: HeLa A3G-eYFP + Vif (tagged APOBEC3G with the HIV-1 protein that degrades it), YFP fluorescence, overnight; series mostly up to 46.1 µM; activity, negative = active: at the top concentration
# Method in brief: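 HeLa cells stably expressing Vif and C-terminally eYFP-tagged A3G, seeded overnight at 37 deg C, then exposed to compound by pintool overnight at 37 deg C. Rise in yellow fluorescence (Ex 488/Em 500-530, Acumen) marks blocked Vif-driven A3G degradation.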
# % is scaled to controls: 0 for no effect and ±100 for the full control effect; potency is read from the fitted curve at half-maximal effect.
Structure (SMILES),"activity, negative = active",Potency
O=C(C[n+]1cc(Br)cc2ccccc21)c1ccc(Br)cc1,inactive: -10.8%,
Cc1cc(=O)n2c(C(=O)Nc3ccc(C)c(C)c3)c(C(=O)Nc3ccccc3)sc2n1,inactive: -27.5%,
COc1ccc2[nH]c3c(NCc4ccco4)ncnc3c2c1,inactive: -15.1%,
CCCCN(C)CC(O)Cn1cc(/C=C/C(=O)c2ccc(C)cc2)c2ccccc21 (configuration not stated),inactive: -22.5%,
C=C[C@@H]1c2cc(C)ccc2N(S(=O)(=O)c2ccc(C)cc2)[C@H](c2ccc(OC(C)=O)cc2)C1(C#N)C#N,inactive: -7.2%,
Oc1sc(C=Nc2ccccc2)c2ccccc12,,active: 11.2 µM
CN(C)c1ccc(/C=C/c2nc3ccccc3s2)cc1,inactive: 2.71%,
COc1ccc(CN2[C@@H](CC(C)=O)c3ccc(/C=C/C(C)=O)cc3S2(=O)=O)cc1,inactive: -29.2%,
CCC(C)Sc1ccc([C@@H]2[C@@H]3C(=O)N(CC)C(=O)[C@@H]3[C@]3(C(=O)OC)CCCCN23)cc1 (some centres not stated),inactive: 4.31%,
COc1ccccc1/C=C/C=N/n1c(-c2ccc(Cl)cc2)n[nH]c1=S,inactive: -15.2%,
COc1ccc(N2CCN(C(=O)c3ccc(CS(=O)c4cccc(C)c4)o3)CC2)cc1 (configuration not stated),inactive: -27.2%,
CCNc1ccc(Br)cc(C(=O)/C=C/c2ccccc2Cl)c1=O,,active: 10 µM
COc1cc(-c2c(-c3ccc4c(c3)OCO4)noc2C)ccc1F,inactive: -15.6%,
CCSc1nnc(-c2sc3nnc(-c4ccccc4)c(-c4ccccc4)c3c2N)o1,,active: 3.16 µM
COc1ccccc1C=Cc1ccnc2ccccc12,inactive: -7.48%,
Cc1cc(=S)[nH]c2ccccc12,inactive: -3.41%,
COc1ccc(-c2cc(C(F)(F)F)nc(S(C)(=O)=O)n2)cc1,inactive: -29.4%,
Oc1ccc(NCc2ccccc2OCc2ccccc2F)cc1,inactive: -32%,
O=C(C[C@H]1C/C=C\CC[C@H](Cc2ccc(F)cc2)C(=O)O[C@@H](c2ccccc2)CNC1=O)N[C@@H](CO)Cc1ccccc1,inactive: -29.6%,
COC1=CC(=O)CC(C)C12Oc1c(Cl)c(OC)cc(OC)c1C2=O (configuration not stated),inactive: -29.8%,
CCCN(CCC)c1nc2c(C)cccn2c(=O)c1/C=C1/SC(=S)N(Cc2ccco2)C1=O,,active: 3.16 µM
COc1ccc(-c2cn(Cc3ccc(C(=O)c4ccccc4)cc3)nn2)cc1,inactive: -24.5%,

Structure (SMILES),"activity, negative = active",Potency
CC1CC(C)(C)Nc2ccc(OC(=O)c3ccco3)cc21 (configuration not stated),,active: 22.4 µM
CCOc1cc(/C=C2/COc3ccccc3C2=O)ccc1OCC(=O)N(C)C,inactive: -1.62%,
O=C(C[C@H]1C/C=C\CC[C@@H](Cc2ccc(F)cc2)C(=O)O[C@@H](c2ccccc2)CNC1=O)N[C@@H](CO)Cc1ccccc1,inactive: 1.21%,
CCN(CC)c1ccc(/C=C(\C#N)c2ccccn2)cc1,,active: 10 µM
CCOC(=O)c1c(-c2ccc(C)cc2)csc1NC(=O)/C(C#N)=C/c1ccc(O)c(OC)c1,,active: 10 µM
COc1ccc(/C=N/NC(=O)c2cccnc2)cc1CSc1ccccn1,,active: 7.08 µM
COc1cc(/C=C2\CCc3ccccc3C2=O)cc(OC)c1OC,inactive: -14.8%,
Cc1ccccc1NC(=O)COC(=O)c1ccc(S(C)(=O)=O)c([N+](=O)[O-])c1,inactive: -21.3%,
COc1ccc(S(=O)Cc2ccc(C(=O)N3CCN(c4cccc(C)c4C)CC3)o2)cc1 (configuration not stated),inactive: 2.46%,
COc1cc(OC)c(OC)cc1/C=C/c1ccnc2ccccc12,inactive: -7.09%,
COc1ccc(-n2nc3c(N4CCC(C(=O)N5CCC(C)CC5)CC4)nnc(C)c3c2C)cc1,inactive: -4.34%,
CCOc1ccccc1NC(=O)COC(=O)CC(C)(C)CC1=NS(=O)(=O)c2ccccc2N1,inactive: -22.6%,
O=C(C[C@H]1C/C=C\CC[C@@H](Cc2ccc(F)cc2)C(=O)O[C@H](c2ccccc2)CNC1=O)N[C@H](CO)Cc1ccccc1,inactive: -13%,
Cn1c(=O)oc2cc(S(=O)(=O)Nc3ccccc3O)ccc21,inactive: -31.5%,
CN(C)c1ccc(/C=C/c2ccnc3ccccc23)cc1O,,active: 11.2 µM
COc1ccc(/C=C2/CCc3ccccc3C2=O)cc1CN1CCOCC1,inactive: -3.26%,
N#C/C(=C\c1ccc(N2CCOCC2)o1)c1nc2ccccc2[nH]1,inactive: 1.55%,
Cc1ccccc1NC(=O)Cn1nnc(C(=O)NCc2ccco2)c1N,inactive: -27.7%,
O=C(C[C@H]1C/C=C\CC[C@H](Cc2ccc(F)cc2)C(=O)O[C@H](c2ccccc2)CNC1=O)N[C@H](CO)Cc1ccccc1,inactive: -24.9%,
O=C(C[C@@H]1C/C=C/CC[C@@H](Cc2ccc(F)cc2)C(=O)OC[C@H](Cc2ccccc2)NC1=O)N[C@H](CO)Cc1ccccc1,inactive: -23.4%,
CC(=O)Nc1cc(NC(C)=O)cc(-c2nc3ccccc3[nH]2)c1,inactive: 0.137%,
CCOC(=O)c1c(CN(CC)CC)n(-c2ccccc2)c2ccc(O)cc12,,active: 12.6 µM

Structure (SMILES),"activity, negative = active",Potency
O=C(O)CCCNc1cc(N2CCN(C(=O)c3ccco3)CC2)c2noc3c2c1C(=O)c1ccccc1-3,,active: 22.4 µM
COC(C[C@H]1O[C@@H]1C(=O)[C@H](C)OCc1ccccc1)OC,inactive: -14.3%,
CCCCCCc1cc2cc(-c3nnc(-c4ccccc4OC)o3)c(=O)oc2cc1O,,active: 12.6 µM
CC[C@H](C)C(=O)O[C@H]1CCC=C2C=C[C@H](C)[C@H](CC[C@@H]3C[C@@H](O)CC(=O)O3)[C@H]21,inactive: -24.6%,
C=C1[C@@H](O)[C@H](CC(C)C)N(Cc2ccccc2Br)S1(=O)=O,inactive: -23.3%,
CC(C)C[C@H]1CN([C@@H](CC(C)C)CN2CCCC2CN2C(=S)NC[C@@H]2Cc2ccc(O)cc2)C(=S)N1CC1CCCCC1 (some centres not stated),inactive: 1.25%,
CCCCCCCCN1[C@@H](CC(=O)O)c2cc(C(F)(F)F)ccc2S1(=O)=O,inactive: 3.29%,
C=C1CCC2[C@](C)(CO)[C@H](O)CC[C@@]2(C)[C@@H]1C/C=C1\C(=O)OC[C@H]1O (some centres not stated),inactive: -13%,
COc1cccc(NC(=O)CSc2nc3ccccc3nc2N2CCOCC2)c1,inactive: -12%,
COc1ccc(/C=C2/CCc3ccccc3C2=O)cc1OC,inactive: -16.7%,
COCCNC(=O)c1cc2c(c(-c3cccc(-c4cc5ccccc5o4)c3)n1)[C@@H](CCO)N(S(=O)C(C)(C)C)C2 (some centres not stated),inactive: -19.6%,
N#C/C(=C\c1ccc(-c2ccc(C(=O)O)cc2)o1)c1nc2ccccc2[nH]1,inactive: -15.8%,
CCC/C=N/NC(=O)c1[nH]c2c([N+](=O)[O-])cccc2c1C,,active: 7.08 µM
CSCC[C@H](NC(=O)[C@H](Cc1ccccc1)n1c(=O)[nH]c2ccccc2c1=O)C(=O)N1CCC[C@H]1C(=O)O,inactive: 4.09%,
CCc1ccccc1NC(=O)Cn1nnc(C(=O)NCc2cccs2)c1N,inactive: -18%,
O[C@H]1CN(Cc2cccs2)[C@@H](c2ccc(Cl)cc2)C[C@@H]1n1cc(C2CC2)nn1,inactive: -0.649%,
N#C/C(=C/c1ccc(-c2ccccc2[N+](=O)[O-])o1)C(N)=O,inactive: -10.9%,
Cc1ccc(C)c(NC(=O)Cn2nnc(C(=O)NCc3ccco3)c2N)c1,inactive: -28.8%,
CN1CCN(CCCN2c3ccccc3Sc3ccc(C(F)(F)F)cc32)CC1,,inactive
COc1cc(-c2noc(C)c2C#Cc2ccccn2)cc(OC)c1OC,inactive: -40.5%,
N#Cc1cccc(NC(=O)CSc2ccc3c4c(cccc24)C(=O)c2ccccc2-3)c1,,active: 2.82 µM
O=C(/C=C\c1ccccc1)Oc1cccc2cccnc12,inactive: -3.62%,

Structure (SMILES),"activity, negative = active",Potency
CC(C)N1CCc2c(sc(NC(=O)c3ccc(S(=O)(=O)N4CCc5ccccc54)cc3)c2C(N)=O)C1,,active: 20 µM
C=CC[C@@H](CC(=O)N[C@@H](CO)Cc1ccccc1)C(=O)NC[C@H](OC(=O)[C@@H](CC=C)Cc1ccc(F)cc1)c1ccccc1,inactive: 0.942%,
COC(=O)N1C(=O)[C@](c2ccccc2)(C2CCCC2)N1C(=O)OC,inactive: -10%,
COc1ccc(-c2nc3c4ccccc4ccn3c2Cc2ccsc2)cc1OC,,active: 8.91 µM
COc1ccc(NS(=O)(=O)c2cc([N+](=O)[O-])ccc2N/N=C\c2c(C)[nH]c3ccccc23)cc1,inactive: -15.4%,
C[C@H](NC(=O)c1nc[nH]c1C(=O)N1CCN(C(=O)OC(C)(C)C)CC1)c1ccccc1,inactive: -8.97%,
CCN1C(=O)[C@H]2[C@@H](c3ccc(SC4CCCCC4)cc3)N3CCCC[C@@]3(C(=O)OC)[C@H]2C1=O,inactive: 3.42%,
COc1cc(-c2noc(C)c2-c2ccc3[nH]ccc3c2)cc(OC)c1OC,,active: 14.1 µM
COc1ccc2c(c1OC)C(=O)OC2C1c2c(cc3c(c2OC)OCO3)CCN1C (configuration not stated),,inactive
CN(c1ccccc1)S(=O)(=O)c1ccc(NC(=O)c2nc(S(C)(=O)=O)ncc2Cl)cc1,inactive: -10.2%,
O=C(O)c1ccc(N/N=C/C2=C(N3CCOCC3)C(=C\c3ccccc3)/CC2)cc1,inactive: 5.77%,
CCN1CCN(Cc2ccc(NC(=O)c3ccc(C)c(NC(=O)C(=O)c4c[nH]c5ccccc45)c3)cc2C(F)(F)F)CC1,inactive: -28.9%,
CC(=O)c1cccc(-c2ccnc3c2CC(C(=O)NCc2ccco2)O3)c1 (configuration not stated),,active: 0.891 µM
Cc1ccc([C@H]2C[C@@H](n3cc(C4CC4)nn3)[C@H](O)CN2CC2CCCCC2)cc1,inactive: -22.8%,
Cc1cccc(N2CCN(C(=O)C3CCN(c4ncnc5c4nc4n5CCCCC4)CC3)CC2C)c1 (configuration not stated),inactive: -24.6%,
C[n+]1cc2c3c(ccc2c2ccc4cc5c(cc4c21)OCO5)OCO3,inactive: -5.24%,
CC1=CC(C)(C)NC(=S)N1c1ccc2ccccc2c1,inactive: 2.76%,
Cc1ccc(C(=O)N/C(=C/c2ccc(-c3cccc([N+](=O)[O-])c3)o2)C(=O)NC(C)(C)C)cc1,inactive: -0.0156%,
COC(=O)c1sc2cc([N+](=O)[O-])cc(SCC(C)C)c2c1N,,active: 10 µM
CCN1/C(=C\c2ccc3cc(C)ccc3[n+]2CC)Sc2cc(C)c(C)cc21,inactive: 14.8%,
CN(C)c1ccc(/C=C/c2nc3ccccc3c(=O)n2CCO)cc1,,active: 11.2 µM
CCOc1ccccc1CNC(=O)C1CCCN(c2nnc(C)c3c(C)n(-c4ccccc4)nc23)C1 (configuration not stated),inactive: -9.34%,

Structure (SMILES),"activity, negative = active",Potency
Cc1ccc(NC(=O)c2cc(S(=O)(=O)NCCC3=CCCCC3)ccc2F)cc1F,inactive: -13%,
COc1cc2c(OC(C)=O)c3c(c(-c4ccc5c(c4)OCO5)c2cc1OC)C(=O)OC3,inactive: -23%,
Cc1ccn2c(Nc3ccccc3C)c(-c3ccccn3)nc2c1,inactive: 2.84%,
Cc1nnc(NC(=O)c2nc(S(=O)(=O)Cc3ccccc3)ncc2Cl)s1,inactive: -20.4%,
CCN1C/C(=C/c2ccc(N3CCOCC3)cc2)C(=O)/C(=C/c2ccc(N3CCOCC3)cc2)C1,,active: 10 µM
CCOc1ccccc1NC(=O)Cn1nnc(C(=O)NCc2cccs2)c1N,inactive: -35%,
CCc1nnc(NC(=O)c2nc(S(=O)(=O)Cc3cccc(C)c3)ncc2Cl)s1,inactive: -14.3%,
CCc1cccc2cc3c(N)c(C(=O)Nc4ccc(S(=O)(=O)N5CCCC5)cc4)sc3nc12,,active: 3.55 µM
N#CC1=C(N)Oc2c(sc3ccccc23)C1c1ccco1 (configuration not stated),,active: 11.2 µM
COc1cc(OC)c(OC)cc1/C=C/c1ccc2ccccc2n1,inactive: -16%,
COc1ccc(-n2c(O)c(/C=N/NS(=O)(=O)c3ccc(C)c([N+](=O)[O-])c3)c3ccccc3c2=O)cc1OC,,active: 3.55 µM
O=C(C[n+]1cc(Br)cc2ccccc21)c1ccc(F)cc1,inactive: -25.5%,
CCCCCCCCCCCCCCCC[n+]1cccc(C(=O)N(CC)CC)c1,inactive: 2.77%,
O=C(Nc1ccc([N+](=O)[O-])cc1)C(Cc1ccccc1)N1C(=O)c2cccc3cccc(c23)C1=O (configuration not stated),,active: 10 µM
Cn1c(N)c(-c2ccccc2)c2ccc([N+](=O)[O-])cc2c1=O,,active: 8.91 µM
N#CC1=C(N)C(C#N)(C#N)[C@H](c2ccncc2)[C@H]2CN(C(=O)OCc3ccccc3)CC=C12,inactive: -12.4%,
COc1ccc(-n2nc3c(N4CCC(C(=O)NCc5ccccc5C)CC4)nnc(C)c3c2C)cc1,inactive: -27.2%,
CC1=NN(c2ccccc2)C(=O)/C1=C\C=C\c1ccccc1,inactive: -24.6%,
CCCCCc1ccc(-c2cn(Cc3ccc(C(=O)c4ccccc4)cc3)nn2)cc1,inactive: -25.8%,
